Source: publication PMC5827659, “A dual mechanism promotes switching of the Stormorken STIM1 R304W mutant into the activated state” (Nature Communications, 2018)

B1: OASFext (extended OASF fragment, STIM1 […]) wild type (domain or fragment)
chain: not shown
notes: human STIM1 […] (extended OASF fragment); Primarily dimeric at ~0.5 mg/ml by AUC; also called wt OASFext; OASFext wt; source: Supplementary Methods
B2: OASFext L251S (STIM1 […] L251S) (domain or fragment)
chain: not shown
notes: human STIM1 […] (extended OASF fragment), L251S; Primarily dimeric at ~0.5 mg/ml by AUC; also called L251S OASFext; L251S protein; source: Supplementary Methods
B3: OASFext R304W (STIM1 […] R304W) (domain or fragment)
chain: not shown
notes: human STIM1 […] (extended OASF fragment) with the patient mutation R304W; Primarily dimeric at ~0.5 mg/ml by AUC; also called R304W OASFext; R304W protein; source: Supplementary Methods

Legend:
[1] = molecular target: the molecule itself; test: AUC; analytical ultracentrifugation of purified OASFext proteins at ~0.5 mg ml^−1 in solution; dimer to monomers
[2] = molecular target: the molecule itself; test: AUC; analytical ultracentrifugation of purified OASFext proteins; estimated self-association of the dimer units (dimer-to-tetramer association; tetramer to dimers)

| Protein | Kd [1] | stoichiometry N [1] | Kd [2] |
| --- | --- | --- | --- |
| B1 | < 1 µM | 2 | – |
| B2 | < 1 µM | 2 | < 1000 µM |
| B3 | < 1 µM | 2 | – |
